Measured values from publication PMC5892938.
The list shows a part of the results. Construct or isoform of the protein are uncertain.

Each sequence was assayed against GST-SBP-ILF3 (Homo sapiens) (UniProt Q12906) (assay: targeted RNA Bind-n-Seq). Conditions: RBNS binding buffer: 25 mM Tris pH 7.5, 150 mM KCl, 3 mM MgCl2, 0.1% Tween, 0.5 mg/mL BSA, 1 mM DTT; 27 nM protein, 750 pM RNA pool; temperature not stated; high values mean tight binding; sequences stand for … in GGGUAAAAGCGAGGUGAA…CGGGACAAGUAUUAUGGG.
“UUUUUUUUUUGAGACUGGUACAGUCUUCUA [tttttgagapaired]” showed a binding signal (log2 fold change) of 0.228.
“GUGUGGUGUGUUGGCAUCUAACACACCGCA [gtspaired]” was tested, and the binding signal (log2 fold change) was -1.07.
“UUUUUUUUUUGAGAUGGUUUCCGUCUUCUA [tttttgagapaired]” was tested, and the binding signal (log2 fold change) was 0.514.
In the case of “UUUUUUUUUUGAGACUGGGGCAGUCUCCAG [tttttgagapaired]”, the binding signal (log2 fold change) is reported as 0.675.
For “UUUUUUUUUUGAGACUGGCGCAGUCUCCUG [tttttgagapaired]”, the binding signal (log2 fold change) was 0.626.
Sequence “UUUUUUUUUUGAGACCGCAUCGGUCUCCUA [tttttgagapaired]” has a binding signal (log2 fold change) of 0.295.
Sequence “UUUUUUUUUUGAGACUGAUGCAGUCUCCGG [tttttgagapaired]” has a binding signal (log2 fold change) of 0.514.
In the case of “UUUUUUUUUUGAGAACGGGUCGUUCUCCUA [tttttgagapaired]”, the binding signal (log2 fold change) is reported as 0.12.
“UUUUUUUUUUGAGAACGAAACGUUCUCCAG [tttttgagapaired]” was tested, and the binding signal (log2 fold change) was -0.0339.
“GGUGUUGGUGUUGGACCCUAACACCAGCGC [gtspaired]” showed a binding signal (log2 fold change) of -0.656.
“GUUGUGUGUGUUGGUGCCUAACACACGCGA [gtspaired]” was tested, and the binding signal (log2 fold change) was -0.792.
“GUGUGGUGUGUUGGUACCUAACACACUAUA [gtspaired]” gave a binding signal (log2 fold change) of -0.366.
Sequence “GUGGUUGGUGUUGGCAUCUAACACCGAUCA [gtspaired]” has a binding signal (log2 fold change) of -0.698.
For “UUUUUUUUUUGAGACGGAGGCCGUUUCCUA [tttttgagapaired]”, the binding signal (log2 fold change) was 0.475.
“UUUUUUUUUUGAGAGCGAAACGCUCUCCUA [tttttgagapaired]” showed a binding signal (log2 fold change) of -0.00885.
Work on “UUUUUUUUUUGAGAUCGGGGCGAUCUCCAG [tttttgagapaired]” yielded a binding signal (log2 fold change) of 0.234.
“UUUUUUUUUUGAGAGGGAUGCCCUCUUCUA [tttttgagapaired]” showed a binding signal (log2 fold change) of 0.438.
“UUUUUUUUUUGAGAUGGGGACUAUCUCCGG [tttttgagapaired]” gave a binding signal (log2 fold change) of 0.603.
Work on “UUUUUUUUUUGAGACUGUGUCAGUUUCCUG [tttttgagapaired]” yielded a binding signal (log2 fold change) of 1.03.
For “UUUUUUUUUUGAGACUGGGUCAGUUUCCUG [tttttgagapaired]”, the binding signal (log2 fold change) was 0.959.
“UUCCUCUCUCCUCCGUCGGAGGGGGGAGGA [ctspaired]” was tested, and the binding signal (log2 fold change) was -0.647.
With “GGUGUGUGUGUUGGUGUCUAACACAUAUAC [gtspaired]” the binding signal (log2 fold change) was -0.826.
Work on “UUUUUUUUUUGAGACUGUAGCAGUCUCCUG [tttttgagapaired]” yielded a binding signal (log2 fold change) of 0.71.
“UUUUUUUUUUGAGAGCGUACCGUUCUCCUA [tttttgagapaired]” gave a binding signal (log2 fold change) of 0.274.
Sequence “UUUUUUUUUUGAGAUCGGAGCGAUCUUCUA [tttttgagapaired]” has a binding signal (log2 fold change) of 0.317.
For “GUUGGUGGUGUUGGCACCUAACACCACCAG [gtspaired]”, the binding signal (log2 fold change) was 0.0729.
“UUUUUUUUUUGAGACCGCAUCGGUCUCCAG [tttttgagapaired]” gave a binding signal (log2 fold change) of 0.25.
Sequence “UUUUUUUUUUGAGACUGGAGCAGUCUUCUA [tttttgagapaired]” has a binding signal (log2 fold change) of 0.565.
“UUUUUUUUUUGAGACCGUGGCGGUCUCCAG [tttttgagapaired]” gave a binding signal (log2 fold change) of 0.42.
“UUCUCUUCUCCUCCGCUGGAGGGGAAGGGA [ctspaired]” showed a binding signal (log2 fold change) of -1.33.
“GUGUGGUGUGUUGGCCCCUAACACAUCACG [gtspaired]” showed a binding signal (log2 fold change) of -0.231.
With “GUUGUGUGUGUUGGUGCCUAACACACGCAA [gtspaired]” the binding signal (log2 fold change) was -0.0854.
“UUUUUUUUUUGAGAGGGGCUCCCUCUCCAG [tttttgagapaired]” showed a binding signal (log2 fold change) of 0.643.
Work on “UUUUUUUUUUGAGAGUGAUGCACUCUCCUA [tttttgagapaired]” yielded a binding signal (log2 fold change) of 0.0131.
“GGUGGUGGUGUUGGAGUCUAACACCAUCGC [gtspaired]” was tested, and the binding signal (log2 fold change) was -0.59.
For “GGUUGUGGUGUUGGUCUCUAACACCGCAGC [gtspaired]”, the binding signal (log2 fold change) was -0.631.
For “UUUUUUUUUUGAGAGCGUAACGUUCUCCUG [tttttgagapaired]”, the binding signal (log2 fold change) was 0.471.
With “UUUUUUUUUUGAGACCGCUACGGUCUCCAG [tttttgagapaired]” the binding signal (log2 fold change) was 0.271.
With “UUUUUUUUUUGAGACGGAUUCCGUUUCCAG [tttttgagapaired]” the binding signal (log2 fold change) was 0.56.
Work on “GUGUGUUGUGUUGGCGCCUAACACAGCACA [gtspaired]” yielded a binding signal (log2 fold change) of -0.214.
“GGUGGUUGUGUUGGUGCCUAACACAGCCGC [gtspaired]” gave a binding signal (log2 fold change) of -0.587.
With “UUUUUUUUUUGAGAAGGACCCCUUCUCCAG [tttttgagapaired]” the binding signal (log2 fold change) was 0.247.
For “UUCUCUCUUCCUCCGCUGGAGGAGGGGAGA [ctspaired]”, the binding signal (log2 fold change) was -0.309.
Work on “UUUUUUUUUUGAGAGGGUCUCCCUUUCCAG [tttttgagapaired]” yielded a binding signal (log2 fold change) of 0.362.
Sequence “UUUUUUUUUUGAGACGGUUGCCGUCUCCGG [tttttgagapaired]” has a binding signal (log2 fold change) of 0.508.
In the case of “GUUGUGUGUGUUGGAACCUAACACACACAG [gtspaired]”, the binding signal (log2 fold change) is reported as -0.716.
For “GUGGUUGGUGUUGGACUCUAACACCGACCG [gtspaired]”, the binding signal (log2 fold change) was -0.38.
Work on “UUUUUUUUUUGAGACGGACGCUGUCUCCUA [tttttgagapaired]” yielded a binding signal (log2 fold change) of 0.859.
Work on “UUUUUUUUUUGAGACUGCUACAGUCUUCUA [tttttgagapaired]” yielded a binding signal (log2 fold change) of 0.247.
“UUUUUUUUUUGAGAGGGAAUCCCUCUUCUG [tttttgagapaired]” showed a binding signal (log2 fold change) of 0.105.
Work on “UUUUUUUUUUGAGACGGCAACCGUCUUCUG [tttttgagapaired]” yielded a binding signal (log2 fold change) of 0.482.
Sequence “UUUUUUUUUUGAGAUGGCGUCCAUCUUCUG [tttttgagapaired]” has a binding signal (log2 fold change) of 0.803.
“UUUUUUUUUUGAGAUCGACGCGAUCUCCGG [tttttgagapaired]” showed a binding signal (log2 fold change) of 0.539.
For “GUGUGUUGUGUUGGUUCCUAACACAGCGCG [gtspaired]”, the binding signal (log2 fold change) was -0.563.
For “UUUUUUUUUUGAGACCGAAUCGGUCUCCUG [tttttgagapaired]”, the binding signal (log2 fold change) was 0.527.
For “GUGGUUGGUGUUGGAGUCUAACACCGACUA [gtspaired]”, the binding signal (log2 fold change) was -0.36.
Work on “UUUUUUUUUUGAGAUGGCAGCCAUCUUCUG [tttttgagapaired]” yielded a binding signal (log2 fold change) of 0.646.
With “GGUUGGUGUGUUGGCACCUAACACAUCAGC [gtspaired]” the binding signal (log2 fold change) was -0.625.
“UUUUUUUUUUGAGAGCGUGGCGCUCUCCAG [tttttgagapaired]” gave a binding signal (log2 fold change) of 0.118.
With “UUUUUUUUUUGAGAGGGUAACCCUCUCCGG [tttttgagapaired]” the binding signal (log2 fold change) was 0.188.
Sequence “UUUUUUUUUUGAGAGCGGAACGUUCUCCUA [tttttgagapaired]” has a binding signal (log2 fold change) of -0.114.
With “GUGGUGUGUGUUGGUGCCUAACACACAUCG [gtspaired]” the binding signal (log2 fold change) was -0.82.
In the case of “UUUUUUUUUUGAGAACGAUACGUUCUUCUA [tttttgagapaired]”, the binding signal (log2 fold change) is reported as -0.0494.
“GGUGGUGGUGUUGGCCCCUAACACCGCCGC [gtspaired]” gave a binding signal (log2 fold change) of 0.0413.
In the case of “UUUUUUUUUUGAGACUGAGGCAGUCUCCGG [tttttgagapaired]”, the binding signal (log2 fold change) is reported as 0.441.
With “UUUUUUUUUUGAGACGGCCGCCGUCUCCUG [tttttgagapaired]” the binding signal (log2 fold change) was 1.01.
“UUUUUUUUUUGAGACCGUAGCGGUCUCCGG [tttttgagapaired]” gave a binding signal (log2 fold change) of 0.832.
Work on “GUUGGUGGUGUUGGACCCUAACACCAUCAA [gtspaired]” yielded a binding signal (log2 fold change) of -0.423.
“UUUUUUUUUUGAGACUGAGUCAGUUUCCUA [tttttgagapaired]” gave a binding signal (log2 fold change) of 0.366.
In the case of “UUUUUUUUUUGAGAUGGGCACUAUCUCCGG [tttttgagapaired]”, the binding signal (log2 fold change) is reported as 0.467.
“UUUUUUUUUUGAGACUGAUUCAGUCUCCAG [tttttgagapaired]” gave a binding signal (log2 fold change) of 0.0135.
“UUUUUUUUUUGAGACUGGAUCAGUCUCCUA [tttttgagapaired]” was tested, and the binding signal (log2 fold change) was 0.363.
“GUGUGGUGUGUUGGUACCUAACACAUCACG [gtspaired]” was tested, and the binding signal (log2 fold change) was -0.619.
“UUUUUUUUUUGAGAUGGGCCCCAUCUCCAG [tttttgagapaired]” showed a binding signal (log2 fold change) of 0.93.
“UUUUUUUUUUGAGAGGGUAGCCCUCUCCUA [tttttgagapaired]” was tested, and the binding signal (log2 fold change) was 0.622.
Sequence “UUUUUUUUUUGAGAUCGUGCCGAUCUCCAG [tttttgagapaired]” has a binding signal (log2 fold change) of 0.681.
In the case of “UUUUUUUUUUGAGAGGGACUCCCUCUUCUG [tttttgagapaired]”, the binding signal (log2 fold change) is reported as 0.338.
“UUUUUUUUUUGAGAGCGGCGCGCUCUCCAG [tttttgagapaired]” showed a binding signal (log2 fold change) of 0.51.
Work on “GUGUGUUGUGUUGGCACCUAACACAACACG [gtspaired]” yielded a binding signal (log2 fold change) of -0.257.
With “GGUGGUUGUGUUGGAGUCUAACACAGCUAC [gtspaired]” the binding signal (log2 fold change) was -0.389.
With “GGUGGUUGUGUUGGAGCCUAACACAGCCGC [gtspaired]” the binding signal (log2 fold change) was -0.407.
Sequence “GGUGGUGGUGUUGGCACCUAACACCAUCGC [gtspaired]” has a binding signal (log2 fold change) of -0.605.
In the case of “UUUUUUUUUUGAGACGGCAUCCGUCUCCAG [tttttgagapaired]”, the binding signal (log2 fold change) is reported as 0.599.
With “UUUUUUUUUUGAGAGGGAAACCCUUUCCGG [tttttgagapaired]” the binding signal (log2 fold change) was 0.0673.
“GUGGUGUGUGUUGGACCCUAACACACAUCA [gtspaired]” gave a binding signal (log2 fold change) of -0.536.
With “UUUUUUUUUUGAGAUCGAUGCGAUCUUCUG [tttttgagapaired]” the binding signal (log2 fold change) was 0.379.
“UUUUUUUUUUGAGAGGGAGUCCCUCUCCUG [tttttgagapaired]” showed a binding signal (log2 fold change) of 0.595.
For “UUUUUUUUUUGAGACCGGAACGGUCUCCAG [tttttgagapaired]”, the binding signal (log2 fold change) was 0.333.
With “UUUUUUUUUUGAGAUGGGGGCUAUCUCCUG [tttttgagapaired]” the binding signal (log2 fold change) was 0.745.
In the case of “GUGUGUUGUGUUGGUACCUAACACAGCGCA [gtspaired]”, the binding signal (log2 fold change) is reported as -0.792.
Work on “GUGGUGUGUGUUGGAGCCUAACACACAUCA [gtspaired]” yielded a binding signal (log2 fold change) of -0.313.
In the case of “UUUUUUUUUUGAGACUGGGCCAGUCUCCGG [tttttgagapaired]”, the binding signal (log2 fold change) is reported as 0.57.
“GGUGUUGGUGUUGGCCUCUAACACCGACGC [gtspaired]” was tested, and the binding signal (log2 fold change) was -0.271.
With “UUUUUUUUUUGAGACUGCGUCAGUCUUCUG [tttttgagapaired]” the binding signal (log2 fold change) was 0.614.
“UUUUUUUUUUGAGACCGGAUCGGUCUUCUA [tttttgagapaired]” showed a binding signal (log2 fold change) of 0.254.
“UUUUUUUUUUGAGAGCGAUACGUUCUUCUA [tttttgagapaired]” showed a binding signal (log2 fold change) of 0.359.
Work on “UUUUUUUUUUGAGACUGCUCCAGUCUCCUG [tttttgagapaired]” yielded a binding signal (log2 fold change) of 0.993.
“UUUUUUUUUUGAGAACGGAUCGUUCUUCUA [tttttgagapaired]” showed a binding signal (log2 fold change) of 0.0338.
For “UUUUUUUUUUGAGAGCGAAUCGUUCUCCAG [tttttgagapaired]”, the binding signal (log2 fold change) was 0.133.
For “UUUUUUUUUUGAGACUGUAUCAGUUUCCUA [tttttgagapaired]”, the binding signal (log2 fold change) was 0.285.
“UUUUUUUUUUGAGAUCGGAGCGAUCUUCUG [tttttgagapaired]” gave a binding signal (log2 fold change) of 0.349.
“GUUGGUGGUGUUGGUGUCUAACACCGCCAG [gtspaired]” gave a binding signal (log2 fold change) of -0.556.
